Results: article PMC4336329 (PLoS ONE, 2015)
Hit rate of the full screen: of about 310,000 compounds, about 14,000 (4.5%) showed an effect of 50% or more. Effects have a minus sign here. The list shows a part of the results.

Molecular target: human ether-à-go-go-related gene (hERG) potassium channel (human, UniProt Q12809)
Test: primary screen, population patch clamp on CHO cells stably expressing hERG
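Also: peak tail current of the secondary pulse compared with the same well before compound.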

human ether-à-go-go-related gene (hERG) potassium channel, sequence (Q12809 whole entry, looked up): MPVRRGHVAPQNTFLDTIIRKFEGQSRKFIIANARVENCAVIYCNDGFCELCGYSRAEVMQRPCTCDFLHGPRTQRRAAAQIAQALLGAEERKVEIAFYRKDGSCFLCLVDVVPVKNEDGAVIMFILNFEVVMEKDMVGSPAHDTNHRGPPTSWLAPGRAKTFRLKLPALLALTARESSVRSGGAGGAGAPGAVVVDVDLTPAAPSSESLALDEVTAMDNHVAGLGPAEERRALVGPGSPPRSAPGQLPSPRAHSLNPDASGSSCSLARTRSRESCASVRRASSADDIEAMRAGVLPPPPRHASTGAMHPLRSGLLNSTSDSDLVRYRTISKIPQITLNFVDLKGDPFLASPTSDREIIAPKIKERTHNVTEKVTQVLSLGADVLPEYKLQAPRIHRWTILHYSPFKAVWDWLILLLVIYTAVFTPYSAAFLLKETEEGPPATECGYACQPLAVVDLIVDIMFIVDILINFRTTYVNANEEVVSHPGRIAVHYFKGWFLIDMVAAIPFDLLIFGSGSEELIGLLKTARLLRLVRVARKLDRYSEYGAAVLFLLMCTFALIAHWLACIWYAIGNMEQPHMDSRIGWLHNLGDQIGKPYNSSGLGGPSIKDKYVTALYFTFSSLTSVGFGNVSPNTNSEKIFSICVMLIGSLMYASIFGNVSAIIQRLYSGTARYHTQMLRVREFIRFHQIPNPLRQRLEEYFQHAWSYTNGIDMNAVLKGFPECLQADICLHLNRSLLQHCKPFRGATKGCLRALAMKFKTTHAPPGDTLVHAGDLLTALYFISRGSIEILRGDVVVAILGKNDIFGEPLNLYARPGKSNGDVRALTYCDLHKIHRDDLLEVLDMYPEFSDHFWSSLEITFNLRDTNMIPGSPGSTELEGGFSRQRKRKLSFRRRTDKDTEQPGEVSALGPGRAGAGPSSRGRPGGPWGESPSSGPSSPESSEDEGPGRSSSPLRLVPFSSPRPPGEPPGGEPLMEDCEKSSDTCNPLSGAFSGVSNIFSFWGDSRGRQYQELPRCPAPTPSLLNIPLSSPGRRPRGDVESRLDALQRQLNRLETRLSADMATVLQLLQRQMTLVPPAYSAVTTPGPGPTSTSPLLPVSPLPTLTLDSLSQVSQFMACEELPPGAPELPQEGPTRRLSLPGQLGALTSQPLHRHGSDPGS

Row | Structure (SMILES) | hERG current change (%, negative = inhibition) at 10uM [%]
1 | COCc1cc(C)nc(SCC(=O)Nc2ccccc2C)c1C#N | -2.77
2 | OCCn1ccc(-c2ccccc2OCc2ccc(F)cc2)n1 | 4.9
3 | COC(=O)C(=O)/C=C(\O)c1c(C)cc(C)cc1C | 14.9
4 | S=C(NCCNC(=S)Nc1ccccc1)Nc1ccccc1 | 16
5 | CCOc1cc(/C=N/NC(=O)c2ccc(NC(=O)C3CC3)cc2)ccc1O | -0.392
6 | CCCCC1=NN(C(=O)c2ccco2)C(O)(C(F)(F)F)C1 (centres unmarked) | 6.78
7 | OCCN1CCN(C(=S)Nc2ccc(Oc3ccccc3)cc2)CC1 | -22.2
8 | CCN1CCN(CCCNC(=O)CCC(=O)N2CCOc3ccc(Cl)cc32)CC1 | -5.48
9 | Cc1cc(C)c2c(CN3CCCCC3)cc(=O)oc2c1 | 10.7
10 | CCOC(=O)c1sc2nc(CN3CCN(c4cccc(C(F)(F)F)c4)CC3)[nH]c(=O)c2c1C | 8.43
11 | CCn1ncc(C(=O)Nc2cc(C)on2)c1C | 4.46
12 | CCOC(=O)c1c(NC(=O)CSc2nnc(CNc3ccc(Cl)cc3)o2)sc(C)c1C | 16.9
13 | CC(C)=CCC/C(C)=C/Cc1c(O)ccc(C(=O)/C=C/c2ccc(O)cc2)c1O | 15.8
14 | CN(NC(=O)C1CC(=O)N(c2ccccc2)C1)C1=NS(=O)(=O)c2ccccc21 (centres unmarked) | 9.65
15 | CCCn1c(=NC(=O)CCS(=O)(=O)c2ccccc2)sc2cc(S(N)(=O)=O)ccc21 | -7.03
16 | O=c1oc2ccccc2nc1/C=C(O)/C=C\c1ccccc1 | 12
17 | CC(Oc1ccc(F)cc1)C(=O)N(Cc1ccccc1)c1c(N)n(Cc2ccccc2)c(=O)[nH]c1=O (centres unmarked) | -13.9
18 | C=CCn1c(CCNC(=O)c2ccccc2F)nnc1SCC(=O)Nc1ccccc1F | -11.2
19 | CCCn1c(N)c(Sc2ccc(Cl)cc2)c(=O)n(CCC)c1=O | -43.3
20 | Cc1ccc(-c2cc(C(=O)OCC(=O)N(C)C3CCS(=O)(=O)C3)c3ccccc3n2)o1 (centres unmarked) | -19.1
21 | N#Cc1nc(COc2ccc(F)cc2)oc1N1CCCC1 | -46.7
22 | CN1/C(=C\C=Nc2cc(S(=O)(=O)N3CCOCC3)ccc2N2CCOCC2)C(C)(C)c2ccccc21 | -71

Row | Structure (SMILES) | hERG current change (%, negative = inhibition) at 10uM [%]
23 | COc1ccc(CC2(CO)CCN(S(=O)(=O)c3sccc3C)CC2)cc1 | -20.9
24 | CSc1ccccc1C(=O)NC1CCCC1 | 20.8
25 | COc1ccc(OCc2cc(C(=O)NC(C)Cc3cnccn3)no2)c(Cl)c1 (centres unmarked) | -4.5
26 | CCOC(=O)CN(C(=O)CNC(=O)c1cccs1)C(C(=O)NC1CCCC1)c1ccncc1 (centres unmarked) | 20.5
27 | CCOC(=O)c1sc(N(Cc2ccccc2)C(=O)CCl)nc1C | -6.21
28 | O=[N+]([O-])c1cc(C(F)(F)F)ccc1N/N=C/c1cc2ccccc2nc1Cl | 11.8
29 | CCOC(=O)C1=C(N)OC2=C(C(=O)CCC2)[C@]12C(=O)N(CC(N)=O)c1ccccc12 | 20.7
30 | Nc1cc(Br)c(N)c(Br)c1 | -7.67
31 | O=C(Nc1ncc2c(n1)CC(c1ccccc1)CC2=O)c1ccco1 (centres unmarked) | -21.9
32 | CCN(CC(=O)Nc1ccc(NC(C)=O)cc1)C(=O)c1cc(C)on1 | 17.1
33 | COCCn1c(SCC(=O)c2ccc(CNC(C)=O)o2)nc2ccccc2c1=O | -6.18
34 | O=C(CN1C(=O)/C(=C2\SC(=S)N(C3CCS(=O)(=O)C3)C2=O)c2ccccc21)Nc1ccc(F)cc1 (centres unmarked) | 13.4
35 | CC(=O)N1NC(=Nc2ccccc2)SC1(C)C | 10.1
36 | COc1cc(/C=N/NC(=O)c2ccc3c(c2)OCCO3)cc(Cl)c1O | 3.2
37 | COC(=O)c1cc2occc2n1CC(=O)N(C)C1CCCCC1 | -2.32
38 | Cc1ccc(S(=O)(=O)Cn2nnnc2C(c2ccccc2)N2CCN(c3ccccc3)CC2)cc1 (centres unmarked) | 15.1
39 | COc1ccc(CN(C(=O)c2ccc(C)cc2)C2CCS(=O)(=O)C2)cc1 (centres unmarked) | -18.5
40 | O=C(NC1CCCC1)c1nc2c(nnn2Cc2cccc(Cl)c2)c(=O)[nH]1 | -10.9
41 | CSc1ccc(/C=C(\C#N)C(=O)NC2CCCCC2)cc1 | 2.94
42 | CC1CC(=O)c2cnc(Nc3ccccc3)nc2C1 (centres unmarked) | -6.44
43 | COc1ccc(-n2c(C)c([N+](=O)[O-])c3ccc(O)c(CN4CCCCC4)c32)cc1.Cl | 11.5
44 | Cc1ccc(C(C)C)c(OCCNC(=S)Nc2cccc3ccccc23)c1 | 15.6

Row | Structure (SMILES) | hERG current change (%, negative = inhibition) at 10uM [%]
45 | O=C(Nc1ccc(F)cc1)C1CCCO1 (centres unmarked) | 22.1
46 | CC(=O)Nc1cc(C(=O)NCc2ccco2)ccc1Sc1ccc(C)cc1 | -17.8
47 | CCc1ccccc1NC(=O)CSc1nnc(-c2cc(C)[nH]n2)n1N | -4.24
48 | O=c1c2ccccc2nc(-c2ccc(Cl)cc2Cl)n1-c1ccncc1 | -9.6
49 | Cc1cccc(CSCCNC(=O)COc2ccc(Cl)cc2)c1 | -1.04
50 | O=C(c1cccnc1)c1cc2ccccc2[nH]1 | 3.05
51 | O=C(CCCN1C(=O)c2ccccc2C1=O)NCc1cccnc1 | -20.6
52 | CCCCN(C(=N)N1CCCCC1)c1nc(C)c([N+](=O)[O-])c(=O)[nH]1 | 1.79
53 | C/C(=N\OC(=O)C1CC1)C1CC1c1ccc(F)cc1 (centres unmarked) | 7.66
54 | CCCCC1(CC(=O)OC)C(=O)N(c2ccccc2)N(c2ccccc2)C1=O | -7.76
55 | CCOC(=O)c1cc2occc2n1CC(=O)NC1CCCCC1C (centres unmarked) | 9.72
56 | Cc1cc(C(=O)CN2C(=O)c3cccc(N)c3C2=O)c(C)n1Cc1cccs1 | 6.32
57 | C[C@H](NC(=O)[C@H]1N2C(=O)c3ccccc3C2SC1(C)C)C(=O)N1CCC[C@H]1C(=O)O (some centres unmarked) | 22.4
58 | Cc1c(C(N)=O)sc2ncn(CC(=O)OC(C)C)c(=O)c12 | 11
59 | CCOC(=O)C(CCc1nnc(N)s1)C(=O)OCC | -2.77
60 | O=C(Nc1ccc(Cl)cc1)Nc1nc(-c2ccccc2O)cs1 | 11.6
61 | COc1ccc(Cn2c(C)nc([N+](=O)[O-])c2SCC(=O)O)cc1[N+](=O)[O-] | 16.5
62 | Cc1[nH]n(-c2ccccc2)c(=O)c1N=Nc1ccc2c(c1)OCCO2 | 16.4
63 | O=C(O)c1ccc(NC(=O)c2cccc(C(=O)Nc3ccc(C(=O)O)cc3)n2)cc1 | 8.92
64 | CCCn1nnnc1NCc1cc(Br)ccc1OC | 0.0141
65 | CC(C)C[C@@H](C)C(=O)N(Cc1ccccc1)c1ccccc1 | -20.2
66 | CCCNS(=O)(=O)c1ccc(OCC(=O)N2CCN(Cc3ccccc3)CC2)cc1 | -28.6

Row | Structure (SMILES) | hERG current change (%, negative = inhibition) at 10uM [%]
67 | COc1cccc(Nc2cc(C)c3ccccc3n2)c1 | 6.21
68 | CSc1ccccc1NC(=S)Nc1ccc(S(N)(=O)=O)cc1 | 10.7
69 | CCCCCCCC/C=C\CCCCCCCC(=O)NCCc1ccc(O)c(O)c1 | 8.81
70 | CCC(CC)c1nnc(NC(=O)CCc2ccc(OC)cc2)s1 | 13.1
71 | COC(=O)c1[nH]c(C)c(/C(O)=C2\C(=O)C(=O)N(CCN3CCOCC3)C2c2cccnc2)c1C (centres unmarked) | -29.2
72 | O=C(Nc1ccccc1)c1cccc(NC(=O)c2ccco2)c1 | -30.5
73 | COc1ccc(/C=N/NC(=O)c2cc(=O)[nH]c3ccccc23)cc1OC | 20.5
74 | O=c1c2oc3ccccc3c2[nH]c(=S)n1-c1ccccc1 | 18.2
75 | Cc1cc(C)n(-c2ccc(S(=O)(=O)N3CCOCC3)cc2[N+](=O)[O-])n1 | -10.9
76 | COc1cc(/C=C/C(=O)OCC(=O)NCc2ccccc2OC)ccc1O | -14.1
77 | Cn1c(=O)c2sccc2n(CC(=O)NCCC2=CCCCC2)c1=O | -1.94
78 | Cc1cc2oc(C(=O)N(Cc3ccc(N(C)C)cc3)CC3CCCO3)c(C)c2cc1C (centres unmarked) | -17.2
79 | COc1ccc(NC(=O)c2sc3cc(C(F)(F)F)cnc3c2-c2cccs2)cc1 | -8.76
80 | CCc1ccc(-c2csc(NC(=O)C3=COCCO3)n2)cc1 | 4.81
81 | CCOc1ccc(S(=O)(=O)Nc2ccc(C(=O)NCCCN3CCOCC3)cc2)cc1 | -17.4
82 | COC(=O)C1=C(c2ccccc2OCc2ccccc2)C[C@@H]2CC[C@H]1N2C(=O)NCCOc1ccc(OC)cc1 | 12.9
83 | COC(=O)c1ccc(N2Cc3ccccc3/C2=N\C(=O)Nc2ccccc2)cc1 | 0.09
84 | COC(=O)c1ccc(C2C(C(=O)c3cc4ccccc4o3)=C(O)C(=O)N2CCN2CCOCC2)cc1 (centres unmarked) | 10
85 | CCOC(=O)C(C(=O)OCC)[C@@H]1CS(=O)(=O)C[C@H]1C(C(=O)OCC)C(=O)OCC | -2.43
86 | CC(C)CC(NC(=O)C1CCCCC1)C(=O)NC(C)c1ccccc1 (centres unmarked) | -5.01
